The whole screen tested about 46,000 compounds, of which about 60 (0.1%) were called active. The shares of active, inactive and inconclusive entries below differ from those in the screen. Calls follow the shape of the dose curve; as a rule, active = well fitted inhibition curve with a large enough effect; inconclusive = small, poorly fitted or top-dose-only effect; inactive = no such curve, though single readings can be large or run the other way. No potency is given beside an inconclusive call; the fits are too rough.
assay: Primary qHTS assay for Inhibitors of ovarian cancer metastasis using an organotypic tumor microenvironment (TME) model.; also: nearly all actives have a fitted effect of over 65% in size;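 as to potency: count of GFP cancer cells still attached after washing and fixation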; settings: SKOV3ip1-GFP adhesion/invasion on 3D omental model, fluorescence; series mostly up to 45.8 µM
Outline: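 Adhesion/invasion was scored as fixed GFP-labeled SKOV3ip1 cell counts (488/509 nm), normalized to DMSO and tomatine controls. Cancer cells in serum-free medium, with four compound doses (0.36-46 umol/L), sat 2 hr at RT then 16 hr at 37 C on a 48 hr fibroblast/mesothelial/ECM culture.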
Potency is read from the fitted curve at half-maximal effect; tags tell the direction and shape of the fitted curve.

Row | Structure (SMILES) | Potency
1 | COc1ccc(OC)c(S(=O)(=O)NCc2ccc3c(c2)CCN3C(=O)c2cccc(C)c2)c1 | inconclusive [inhibitor, single point]
2 | C#C[C@]1(O)CC[C@H]2[C@H]3CCc4cc(OC)ccc4[C@H]3CC[C@@]21C | inactive
3 | CCc1c(CN2CCN(c3cccc(C)c3)C(C)C2)csc1C (centres undefined) | inconclusive [inhibitor, single point]
4 | CCc1ccc(NC(=O)CC2C(=O)N(c3ccc(Cl)cc3)C(=O)N2C2CCCC2)cc1 (centres undefined) | inconclusive [inhibitor, single point]
5 | O=C(NC1CC(=O)N(c2ccccc2)C1)c1ccc(S(=O)(=O)N2CCCC2)cc1 (centres undefined) | inconclusive [inhibitor, single point]
6 | Cc1noc2ncnc(N3CCCC(C(=O)Nc4cccc(C(F)(F)F)c4)C3)c12 (centres undefined) | inconclusive [inhibitor, partial curve, poor fit]
7 | CC(C)c1ccc(NC(=O)C(Cc2ccccc2)NS(=O)(=O)c2ccc3c(c2)oc(=O)n3C)cc1 (centres undefined) | inconclusive [inhibitor, single point]
8 | COc1cc(CN2CCN(S(=O)(=O)c3ccc(F)cc3)CC2)cc(OC)c1OC | inconclusive [inhibitor, single point]
9 | CC(C)c1ccc(/C=C(\C#N)c2nc(-c3ccc(O)cc3)cs2)cc1 | inconclusive [inhibitor, single point]
10 | CCc1cccc(NC(=O)COc2cc(=O)n(CC)c3ccccc23)c1 | inactive
11 | Cc1ccc2nc(/C(C#N)=C/c3ccc(-c4cccc(Cl)c4)o3)[nH]c2c1 | inactive
12 | COc1ccc(NC(=O)CCCS(=O)(=O)c2nc(-c3ccc(OC)c(OC)c3)cc(C(F)(F)F)n2)cc1OC | inconclusive [inhibitor, partial curve, poor fit]
13 | COc1ccc(NC(=O)C(Cc2ccccc2)n2cccc2)c(OC)c1 (centres undefined) | inconclusive [inhibitor, single point]
14 | Cc1cccc(NC(=O)c2c(Br)sc3c2CCCC3)c1 | inactive
15 | O=C(NCc1ccc(Cl)cc1)C1CCCN(c2ncnc3onc(-c4ccc(F)cc4)c23)C1 (centres undefined) | inconclusive [inhibitor, single point]
16 | O=C(NCCCN1CCN(c2ccccc2)CC1)c1cc2c(s1)-c1ccccc1OC2 | inconclusive [inhibitor, single point]
17 | Cc1ccc(Nc2c(-c3ccc(N(C)C)cc3)nc3ccccn23)cc1 | inactive
18 | CCN(CC)CCOC(=O)c1ccc(NC(=O)c2nn(-c3ccc(C)cc3)c(=O)c3c2c2ccccc2n3C)cc1 | inconclusive [inhibitor, full curve, poor fit]
19 | CCOC(=O)c1ccc(NC(=O)c2nc(S(=O)(=O)Cc3ccccc3)ncc2Cl)cc1 | inconclusive [inhibitor, partial curve, poor fit]
20 | CC(Sc1ncc(S(=O)(=O)c2ccc(C(C)C)cc2)c(N)n1)C(=O)Nc1ccccc1 (centres undefined) | inactive

Row | Structure (SMILES) | Potency
21 | CCN(CC)CCn1c(=N)n(CC(O)COc2ccccc2C)c2ccccc21 (centres undefined) | inconclusive [inhibitor, single point]
22 | COc1ccc(-c2noc(CSc3nnc(-c4ccncc4)n3-c3ccccc3)n2)cc1 | inactive
23 | Cc1ccccc1-c1noc(CSc2nnc(Cc3ccccc3)n2-c2ccc(F)cc2)n1 | inconclusive [inhibitor, partial curve, poor fit]
24 | CCc1ccccc1Nc1nn2c(=O)c3ccc(C(=O)Nc4ccc(OC)cc4)cc3nc2s1 | inconclusive [inhibitor, single point]
25 | CCN1CCC(N(Cc2ccc(F)cc2)C(=O)Nc2cccc(C(F)(F)F)c2)CC1 | inconclusive [inhibitor, single point]
26 | Cc1ccccc1Cn1c(CN2CCN(c3cc(Cl)ccc3C)CC2)nc2c1c(=O)[nH]c(=O)n2C | inconclusive [inhibitor, single point]
27 | CCOc1cc(C(=O)Nc2ccc(-c3nc4cc(Cl)ccc4o3)cc2)cc(OCC)c1OCC | inconclusive [inhibitor, single point]
28 | CCC(=O)N1CCc2cc(S(=O)(=O)NC(CC(C)C)C(=O)Nc3cc(C)ccc3OC)ccc21 (centres undefined) | inconclusive [inhibitor, single point]
29 | COc1ccc(NC(=O)c2sc3nc4c(cc3c2N)CN(Cc2ccccc2)CC4)cc1 | inactive
30 | CCn1cc(C(=O)OCC(=O)Nc2cc(Cl)ccc2OC)c(=O)c2ccc(C)nc21 | inactive
31 | CC1CCN(S(=O)(=O)c2cc(C(=O)NCc3ccc(N(C)C)cc3)n(C)c2)CC1 | inactive
32 | Cc1csc2nc(-c3ccc(NS(=O)(=O)c4cccc(F)c4)cc3)cn12 | inconclusive [inhibitor, partial curve]
33 | COc1ccc(C(=O)Nc2nc(-c3nnn(-c4ccc(F)cc4F)c3C)ns2)cc1 | inconclusive [inhibitor, partial curve, poor fit]
34 | CC(C)N1CCc2c(sc(NC(=O)c3ccc(S(=O)(=O)N(C)C4CCCCC4)cc3)c2C(N)=O)C1 | inconclusive [inhibitor, single point]
35 | CCCN1CCN(CCCNC(=O)c2ccc3c(c2)sc2nc(-c4ccc(OCC)cc4)cn23)CC1 | inconclusive [inhibitor, single point]
36 | CCN(CC)CCn1c(=N)n(CCOc2ccccc2Cl)c2ccccc21 | inconclusive [inhibitor, partial curve, poor fit]
37 | COc1ccc(C2=C(C)C(=O)N(Cc3ccc(C(=O)Nc4ccc(F)cc4C)cc3)S2(=O)=O)cc1 | inconclusive [inhibitor, partial curve, poor fit]
38 | COc1ccc(NCc2nnc3n2CCCCC3)c(OC)c1 | inconclusive [inhibitor, single point]
39 | O=C(Nc1ccccc1C(F)(F)F)c1cc2ccccn2n1 | inactive
